PubChem BioAssay AID624296 (National Center for Advancing Translational Sciences (NCATS), 2012)
In all, about 350,000 compounds went through this assay and about 9,900 (2.8%) were called active. The shares of active, inactive and inconclusive entries below differ from those in the screen. Calls come from the whole dose curve; as a rule, active = well fitted activation curve with a large enough effect; inconclusive = small, poorly fitted or top-dose-only effect; inactive = no such curve, though single readings can be large or run the other way. Potencies of inconclusive entries are left out as doubtful fits.

Experiment: A quantitative high throughput screen for small molecules that induce DNA re-replication in MCF 10a normal breast cells. Note: nearly all actives have a fitted effect of over 50% in size.
Details: MCF 10A DNA re-replication, Hoechst nuclear intensity, 48 h; series mostly up to 46.1 µM
Potency is the fitted concentration of half-maximal effect; tags give direction and shape of the fitted curve.

Row | Structure (SMILES) | Potency
1 | Cc1ccc(NC(=O)Nc2ccc3c(c2)N(C)C(=O)CS3)cc1C | inactive
2 | Cc1ccc2c(c1)CCCN2C(=O)c1cccs1 | inconclusive [activator, single point]
3 | Cc1ccc(N(Cc2ccccc2)C(=O)c2cccc(S(=O)(=O)N3CC(C)OC(C)C3)c2)cc1 (configuration not stated) | inconclusive [activator, partial curve]
4 | O=C(c1ccco1)N(Cc1cc2ccccc2[nH]c1=O)CC1CCCO1 (configuration not stated) | inactive
5 | CN1CCN(c2ccc(-c3cccc(NC(=O)COc4ccccc4)c3)nn2)CC1 | inconclusive [activator, single point]
6 | CC(=O)c1ccc(OC(=O)CCN2c3ccccc3Sc3ccccc32)cc1 | inconclusive [activator, partial curve, poor fit]
7 | O=C(CN1C2=NCCCN2c2ccccc21)c1ccc([N+](=O)[O-])cc1 | inactive
8 | O=[N+]([O-])c1cccc2c(N3CCCC3)ccnc12 | inconclusive [activator, partial curve, poor fit]
9 | CCN(CC(=O)NCc1cccs1)c1nnnn1-c1ccccc1 | inconclusive [activator, single point]
10 | CCC(CC)COC(=O)C1=C(C)NC(=O)NC1c1ccc(N(C)C)cc1 (configuration not stated) | inactive
11 | Clc1ccc(-c2noc(CSc3nnc(Cc4cccs4)n3-c3ccccc3)n2)cc1 | inconclusive [activator, partial curve, poor fit]
12 | COc1ccc(NC(=O)C(C)Sc2ccccc2)cc1 (configuration not stated) | inactive
13 | COc1cc(C(=O)N(C)CC2CCN(CCc3cccc(C(F)(F)F)c3)CC2)ccc1C | inconclusive [activator, partial curve, poor fit]
14 | COc1ccc(-c2ccc([C@H]3[C@@H]4C=CCC[C@@]4(C)C(=O)N3Cc3ccccc3)c(F)c2)cc1OC | inconclusive [activator, partial curve, poor fit]
15 | Cc1ccc(NS(=O)(=O)c2cccc(C(=O)N/N=C/c3ccc4c(c3)OCCO4)c2)c(C)c1 | inconclusive [activator, single point]
16 | CN(CCCOc1ccccc1F)Cc1ccccc1 | inconclusive [activator, partial curve, poor fit]
17 | O=C(CSc1nnc(Cc2ccccc2)n1Cc1ccco1)NC12CC3CC(CC(C3)C1)C2 | inconclusive [activator, partial curve, poor fit]
18 | CN(NC(=O)c1ccc(Cl)cc1)c1nc(-c2ccccc2)nnc1C(F)(F)F | inconclusive [activator, single point]
19 | O=C(NCCC1=CCCCC1)C1CCCN(S(=O)(=O)c2ccccc2)C1 (configuration not stated) | inconclusive [activator, single point]
20 | O=C(OC1CCOC1=O)c1ccccc1C(=O)c1ccc(Cl)c([N+](=O)[O-])c1 (configuration not stated) | active: 4.61 µM
21 | O=[N+]([O-])c1ccc(C(=S)N2CCN(c3ccc(F)cc3)CC2)cc1 | inactive

Row | Structure (SMILES) | Potency
22 | CCN(CC(=O)Nc1ccc2c(c1)OCCO2)S(=O)(=O)c1ccccc1 | inactive
23 | CC(Cc1ccccc1)C(=O)N[C@@H](CO)Cc1ccccc1 (some centres not stated) | inconclusive [activator, single point]
24 | CC(=O)Nc1ccc(S(=O)(=O)NC2(c3ccccc3)C(=O)N(C)C(=O)N(C)C2=O)cc1 | inactive
25 | O=C(Nc1cccc2ccccc12)OC1C=CS(=O)(=O)C1 (configuration not stated) | inconclusive [activator, partial curve, poor fit]
26 | Cc1ccc(NNS(=O)(=O)c2ccc(C)cc2)cc1 | inconclusive [activator, single point]
27 | COc1ccc(C=CC(=O)C=CC=Cc2ccccc2)cc1 | inconclusive [activator, partial curve, poor fit]
28 | COC(=O)CN(c1ccccc1OC)S(=O)(=O)c1ccccc1 | inconclusive [activator, full curve, poor fit]
29 | Cc1cn(C(=O)c2ccccc2)c(=S)n1-c1ccc(Cl)cc1 | inconclusive [activator, partial curve, poor fit]
30 | CCOC(=O)/C(C#N)=C/Nc1cc(OC)ccc1OC | inconclusive [activator, partial curve, poor fit]
31 | NC(=O)NC(=O)C(c1ccccc1)N1CCN(S(=O)(=O)Cc2ccccc2)CC1 (configuration not stated) | inconclusive [activator, single point]
32 | CC(=O)OCC1OC(OCc2cn(C[C@H]3CC[C@H](Cn4cc(COC5OC(COC(C)=O)C(OC(C)=O)C(OC(C)=O)C5OC(C)=O)nn4)O3)nn2)C(OC(C)=O)C(OC(C)=O)C1OC(C)=O (some centres not stated) | inactive
33 | O=[N+]([O-])c1cc([N+](=O)[O-])c(Oc2cccc(Cl)c2Cl)cc1NN1CCCCC1 | inactive
34 | COC(=O)c1c(NC(=S)NN2CCN(C)CC2)sc2c1CCC(C)C2 (configuration not stated) | inconclusive [activator, single point]
35 | CC(C)(CNC(=O)CCNC(=O)c1ccc(Br)cc1)N1CCOCC1 | inactive
36 | COc1ccc(CCNC(=O)c2nn(C)c3c2CS(=O)(=O)c2ccccc2-3)c(OC)c1 | inconclusive [activator, partial curve, poor fit]
37 | Cc1c(Cl)cccc1NC(=S)N(C)CCC#N | inactive
38 | CCN(CC)CC(C)(C)COC(=O)c1oc2ccccc2c1C | inactive
39 | CCO[C@H]1OC(C(=O)O)=C[C@@H](c2coc3ccccc3c2=O)[C@@H]1CCCO | inactive
40 | Cc1nc(SCc2nc3ccc(C(F)(F)F)cc3[nH]2)c2oc3ccccc3c2n1 | inconclusive [activator, single point]
41 | C=CCNC(=O)c1c[nH]c2ccc(S(=O)(=O)N(C)c3ccc(OCC)cc3)cc2c1=O | inconclusive [activator, single point]
42 | COc1cc2sc(-c3ccc(S(C)(=O)=O)cc3)c(-c3ccc4c(c3)OCO4)c2cc1OC | inconclusive [activator, partial curve, poor fit]
